Laboratory results from paper PMC6919601, “Identification of Plasmodium dipeptidyl aminopeptidase allosteric inhibitors by high throughput screening” (PLoS ONE, 2019).
Among all 110,000 compounds or so, about 230 (0.21%) showed an effect of 50% or more. Some of the results follow.

molecular target: DPAP1 (Plasmodium falciparum, UniProt Q8IIJ9); test: primary screen, percent inhibition; read by cleavage of a fluorogenic dipeptide substrate; higher = more effect of the substance; design: species or system P. falciparum D10 trophozoite lysates; single well
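Also: 30 min substrate incubation versus DMSO and 10 µM JCP410 controls.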

Sequence of DPAP1 (Q8IIJ9 whole entry, looked up): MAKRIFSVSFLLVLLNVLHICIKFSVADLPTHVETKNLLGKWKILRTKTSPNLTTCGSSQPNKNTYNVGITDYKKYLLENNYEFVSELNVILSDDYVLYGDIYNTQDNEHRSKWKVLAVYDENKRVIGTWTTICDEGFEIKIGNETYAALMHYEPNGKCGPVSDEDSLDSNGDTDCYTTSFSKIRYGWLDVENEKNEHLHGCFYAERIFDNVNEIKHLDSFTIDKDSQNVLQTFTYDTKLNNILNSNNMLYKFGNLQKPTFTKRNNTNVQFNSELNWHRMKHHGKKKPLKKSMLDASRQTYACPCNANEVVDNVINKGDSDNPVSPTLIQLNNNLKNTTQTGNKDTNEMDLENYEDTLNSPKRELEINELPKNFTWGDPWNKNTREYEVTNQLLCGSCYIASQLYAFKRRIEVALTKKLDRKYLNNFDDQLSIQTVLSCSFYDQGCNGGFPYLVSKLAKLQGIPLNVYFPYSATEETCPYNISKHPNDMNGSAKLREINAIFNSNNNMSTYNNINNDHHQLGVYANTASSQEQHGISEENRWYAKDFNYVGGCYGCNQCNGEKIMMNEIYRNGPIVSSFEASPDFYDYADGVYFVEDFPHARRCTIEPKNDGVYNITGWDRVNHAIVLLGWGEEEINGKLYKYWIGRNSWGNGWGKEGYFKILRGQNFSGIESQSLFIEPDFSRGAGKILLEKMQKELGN

Structure (SMILES) | % Inhibition @ 10 uM [%]
COc1ccccc1/N=C1\SC(C(=O)Nc2ccccc2OC)CC(=O)N1C (centres unmarked) | 0.385
COc1ccc(-c2cc(N3CCOCC3)c3cc(OC)c(OC)cc3c2)cc1OC | -2.35
COCCNC(=O)Cn1nc(C)n2c(cc3c(OC)cccc32)c1=O | -3.47
CCc1nc2ccc(C(=O)NCCCN3CCN(C4CCCCC4)CC3)cc2nc1CC | 7.76
CN1C2CCC1/C(=C\c1ccccc1F)C(=O)/C2=C/c1ccccc1F | -6.4
Cc1cc(O)nc(SCc2cccc3ccccc23)n1 | -1.59
Cc1nn(CC(=O)NC(C)C)c(=O)c2nn(-c3ccccc3)c(C)c12 | 1.28
C(=C\c1nn2c(Cc3ccccc3)nnc2s1)/c1ccccc1 | 46.3
Cc1ccccc1OCC(O)Cn1c(N2CCNCC2)nc2c1c(=O)n(C)c(=O)n2C (centres unmarked) | 8.09
CCOc1ccccc1C(=O)Nc1ccc(Br)cc1F | -1.61
CCOc1cc(Cl)c2noc3c2c1C(=O)c1ccccc1-3 | -4.04
COCC(C)NC(=O)CSc1nc(-c2ccc(OC)c(OC)c2)cc(C(F)(F)F)n1 (centres unmarked) | 40.7
O=C(Nc1ccc(NC(=O)C(F)(F)F)cc1)c1ccco1 | -1.07
CCOc1ccccc1N1CCN(Cc2ccc(F)cc2F)CC1 | -9.66
CCCCNC(=O)c1cc2c(=O)oc3ccccc3c2s1 | 5.4
CC(C)(C)C1CCc2c(sc3nnn(Cc4ccccc4)c(=O)c23)C1 (centres unmarked) | 4
C=CCNC(=O)COc1c(C)cc(Br)cc1C | -4.97
Cc1c(C(=O)O)sc2nc3n(c(=O)c12)CCC(C)CC3 (centres unmarked) | -1.7
Cc1ccc(Cl)c(OCC(O)Cn2cnc3ccccc32)c1 (centres unmarked) | 1.67
N=C1/C(=C\c2cccn2Cc2ccccc2F)C(=O)N=C2SC(N3CCCC3)=NN12 | 1.72
CCCC(=O)Nc1nnc(-c2ccccc2Cl)s1 | 8.74
COc1ccc(N(CC(=O)Nc2ccc(C)cc2)S(=O)(=O)c2ccccc2)cc1OC | 3.17
CC(NC(=O)Cn1ncc2c3ccccc3n(C)c2c1=O)C12CC3CC(CC(C3)C1)C2 (centres unmarked) | -0.23
COc1ccc(C2C(C#N)=C(N)Oc3c2ccc2ccccc32)cc1Br (centres unmarked) | 3.27
CN1C(=O)c2ccccc2C1(O)c1ccccc1 (centres unmarked) | -3.94
Cc1ccccc1-c1nc(CS(=O)CC(=O)N2CCOCC2)c(C)o1 (centres unmarked) | -1.05

Structure (SMILES) | % Inhibition @ 10 uM [%]
COc1ccc(S(=O)(=O)N(C)C2CCCCC2)cc1 | 2.99
CC1=NC(=S)NC(c2ccc(N(C)C)cc2)/C1=C(/O)OCC(C)C (centres unmarked) | -2.03
Cc1cccc(/N=c2\scc(-c3ccccc3)n2CCO)c1 | -0.67
CC1C(=O)CC(c2ccccc2)N(C)C1c1ccccc1 (centres unmarked) | -3.03
Cc1cc(C)n2nc(Cc3ccccc3)nc2n1 | 1
COc1ccccc1NC(=O)C1CC=CCC1C(=O)NC1CCCCC1 (centres unmarked) | 1.42
N#Cc1c(/N=C/c2cccn2-c2ccc(S(N)(=O)=O)cc2)sc2c1CCCC2 | 0.47
O=C(NCCc1ccccc1)C1c2ccccc2C(=O)N(C2CCCC2)C1c1cccs1 (centres unmarked) | 2.74
CCOc1c(CNCc2ccncc2)cccc1OC | 1.72
Cc1ccc(OCCCCCN2CCCCC2)c(C)c1 | 0.135
CC(C)(C)c1ccc(Sc2cc3c(c(N4CCCCC4)c2)C(=O)c2ccccc2C3=O)cc1 | -2.91
COCCCNC(=O)CSc1nnc(C)c2c(C)n(-c3ccccc3)nc12 | 2.58
CCOc1cc(=O)oc2ccccc12 | -5.26
COC(=O)c1cc(C)nc2c1c(C)nn2-c1ccccc1Cl | -2.83
Cc1ccc(CNC(=O)CCc2nnc3ccc(N4CCC(C)CC4)nn23)cc1 | -0.544
CCN1CCCC1CNC(=O)c1cc2c(O)nc3ccc(C)cc3c2s1 (centres unmarked) | 2.85
COc1ccc(CCNS(=O)(=O)c2c(C)nc3scc(C)n3c2=O)cc1OC | 0.128
C=CCOc1ccc(C(=O)C2=C(O)C(=O)N(CCN(C)C)C2c2ccccc2F)cc1C (centres unmarked) | 4.74
COc1ccc(Br)cc1C1CC(=O)NC(C)=C1C(=O)OC(C)C (centres unmarked) | -3.87
CCN(CC)CCCNC(=O)c1[nH]c(C)c(C(C)=O)c1C | -4.38
Cc1ccc(CCNC(=O)Cc2noc3ccc(C)cc23)cc1 | -0.788
CC(=O)c1c(O)c2c3n(c1=O)-c1ccccc1C3(C)CCC2 (centres unmarked) | -4.76
Cc1ccc(S(=O)(=O)N(CC(=O)N2CCN(C)CC2)c2ccccc2C)cc1 | 0.235
CC1(C)CC(=O)C2=C(C1)OC(N)=C(C#N)C2c1ccccc1OCc1ccccc1Cl (centres unmarked) | -0.736
Cc1c(CC(=O)N2CCCC2)c(=O)oc2c(C)c(O)ccc12 | 2.54
COc1ccc(C2OC(=O)CC2C(=O)NC(C)C)cc1OC (centres unmarked) | 0.238

Structure (SMILES) | % Inhibition @ 10 uM [%]
O=C(O)CCC(=O)Nc1ccc(S(=O)(=O)Nc2ccc(F)cc2)cc1 | 1.37
COCCNC(=O)CCCCn1c(=S)[nH]c2c([nH]c3ccc(OC)cc32)c1=O | -3.95
Cn1nccc1C(=O)Nc1ccn(C23CC4CC(CC(C4)C2)C3)n1 | -2.09
CCN(CC)C(=O)C1CCCN(Cc2ccc(C(F)(F)F)cc2)C1 (centres unmarked) | -2.7
Cc1ccc(CSCc2ccc(C(=O)NCc3cccs3)o2)cc1 | 2.18
C=CCOC(=O)c1sc(N2C(=O)c3oc4ccccc4c(=O)c3C2c2ccc(O)cc2)nc1C (centres unmarked) | 7.65
O=C(/C=C/Nc1ccccn1)c1ccc(Cl)s1 | -4.03
C=CCn1c(=N)c(C(=O)NC)cc2c(=O)n3cc(C)ccc3nc21 | -1.47
O=C(CCC1CCCC1)Nc1ccc(Br)cn1 | -4.41
COc1ccc(C(=O)C2=C(O)C(=O)N(CCCn3ccnc3)C2c2cccc(O)c2)cc1F (centres unmarked) | -0.132
COCCCNC(=O)CSc1nc2nc(C)c(Cc3c(F)cccc3Cl)c(C)n2n1 | 18.5
COc1cc2c(cc1OC)CN(C(=O)c1ccco1)CC2 | -7.3
CC(C)Cn1cc(NC(=O)NCCC2=CCCCC2)c2ccccc2c1=O | -2.52
CC(C)N(C(=O)c1ccc2snnc2c1)C(C)C | -0.0235
Cc1cccc(C)c1OCCCN1CCOCC1 | -2.12
O=C(Cn1cc(S(=O)(=O)Cc2ccccc2)c2ccccc21)NC1CCCCC1 | 4.91
CCOc1ccc(C2NCCc3cc(OCC)c(OC)cc32)cc1OC (centres unmarked) | 5.15
CC(C)CC(C(=O)NCC#N)c1nc(-c2ccc(Br)cc2)cs1 (centres unmarked) | 0.173
COc1ccccc1N1CCN(S(=O)(=O)c2cc(Cl)ccc2Cl)CC1 | 1.83
COc1cc(NC(=O)CC2S/C(=N\c3ccccc3C)N(C)C2=O)c(OC)cc1Cl (centres unmarked) | -0.992
CCN(CCN(C)C)Cc1ccc(OC)cc1 | 1.62
CCc1nc2cccnc2n1-c1ccc(CC(=O)NCCc2ccc(S(N)(=O)=O)cc2)cc1 | 6.78
CS(=O)(=O)N(CC(=O)N1CCN(c2ccccc2F)CC1)c1cccc(F)c1 | -0.854
CCOc1cc(CNCCCN(CC)CC)ccc1OC | -10.9
C=CCOc1ccc(C2C(C#N)=C(N)OC3=C2C(=O)CC(C)(C)C3)cc1OC (centres unmarked) | 1.43
CCOC(=O)c1[nH]c(C)c(C(=O)Cc2cccc(Br)c2)c1C | 3.01

Structure (SMILES) | % Inhibition @ 10 uM [%]
COc1ccccc1-c1nnc(S)o1 | 3.72
CCOc1ccccc1C1/C(=C(\O)OC)C(C)=Nc2nc(-c3ccccc3)nn21 (centres unmarked) | 5.17
CSc1cnn(Cc2ccccc2)c(=O)c1SC | 1.67
CC(C)Cc1ccc(S(=O)(=O)N2CCN(Cc3ccccc3)CC2)cc1 | -0.363
CN1CCN(C(=O)c2ccc(Cl)cc2Cl)CC1 | 8.67
Cc1ccc(-n2nc(C)c3c(C)c(CCC(=O)NCCCN4CCCC4)c(C)nc32)cc1C | -0.465
O=C(Nc1ccc(Cl)cc1F)C1CC(=O)N(c2ccc(Cl)cc2)C1 (centres unmarked) | -1.42
CC(C)CS(=O)(=O)C1=NN2C(=N)/C(=C\c3ccc(O)cc3)C(=O)N=C2S1 | -1.54
CCn1nc(-c2ccccc2)c(N2CCOCC2)nc1=O | 16.6
CC(=O)Nc1ccc(C(=O)Nc2ccc(C(C)C)cc2)cc1 | -3.77
COc1ccc(C(=O)N2CCN(C(=O)c3ccco3)CC2)cc1COc1ccc(Br)cc1 | -1.88
COc1ccc(-c2noc(CSc3ccccc3)n2)cc1OC | -5.6
COCCO/C(O)=C1\C(C)=NC2=C(C(=O)CCC2)C1c1ccccc1OC(C)C (centres unmarked) | 10.4
Cc1c(-c2ccccc2)[n+]([O-])c(-c2ccco2)c(C)[n+]1[O-] | 1.84
CN1CC=C2C(C#N)=C(N)C(C#N)(C#N)C(c3cccc(O)c3)C2C1 (centres unmarked) | -2.39
CN(Cc1c(F)cccc1Cl)CC(O)c1ccccc1 (centres unmarked) | -4.14
CN(CCO)C12CC3CC(CC(O)(C3)C1)C2 | 3.82
CC(=O)c1ccc(OCC(=O)NC2CCS(=O)(=O)C2)cc1 (centres unmarked) | 3.06
CCN1C/C(=C\c2cc(OC)c(OC)cc2OC)C(=O)/C(=C/c2cc(OC)c(OC)cc2OC)C1 | 1.07
O=C(COc1ccc(S(=O)(=O)NC2CCCCC2)cc1)Nc1ccc2c(c1)OCO2 | -1.27
COc1ccc(C(=O)CCN(C)CC(=O)O)cc1 | 55.8
C=CCSc1nc(=O)c2c(n1C)NC(=O)CC2c1cc(Br)ccc1OC (centres unmarked) | 0.596
CN(CCNC(=O)c1cc2c(s1)-c1ccccc1OC2)C1CCCCC1 | -3.08
